Consider 61 compounds from PubChem BioAssay AID1508642 (National Center for Advancing Translational Sciences (NCATS), 2021).

The whole screen tested about 43,000 compounds, of which about 200 (0.47%) were called active. Not shown: some 12% with an inconclusive outcome. Calls come from the whole dose curve; as a rule, active = well fitted cell-killing curve with a large enough effect; inconclusive = small, poorly fitted or top-dose-only effect, or effect the other way; inactive = flat fitted curve, though single readings scatter. Some of the results follow.
% is set by controls: 0 for no effect and ±100 for the full control effect.

The test in a line: Cell viability qHTS assay in S16 Pmp22-F2sN cells. Note: nearly all actives have a fitted effect of over 65% in size. The settings on record: S16 Pmp22-F2sN Schwann cells (luciferase reporters placed in the Pmp22 gene) viability, CellTiter-Glo, 24 h; series mostly up to 57.5 µM; activity change, negative = cytotoxicity: at the top concentration. In short, it runs like this: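 Rat S16 Schwann reporter line, 24 h treatment with library compounds delivered at 23 nL per well. Cell viability by CellTiter-Glo luminescence.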
In general terms: qHTS replaces the single test concentration by a dilution series.
Turning to `CCOc1ccccc1NC(=O)CCn1c(-c2ccc(OC)cc2)cc(C(C)=O)c1C`, the “activity change, negative = cytotoxicity” value was inactive: -3.58%.

As to `CCOc1ccccc1NC(=O)C(C)Sc1cc(-c2ccccc2)nc(C)n1` (stereo unspecified), the “activity change, negative = cytotoxicity” value was inactive: 3.99%.

Regarding `Cn1c(=O)cc(SCC(=O)NCc2ccc(F)cc2)c2ccc(Cl)cc21`, the “activity change, negative = cytotoxicity” value is inactive: -0.421%.

Regarding `CCCCNC(=O)C1CCN(S(=O)(=O)c2cc(Br)cc3c2N(C(=O)CC)CC3)CC1`, the “activity change, negative = cytotoxicity” value was inactive: -0.763%.

Regarding `COc1ccc(-c2nnc(SCC(=O)Nc3cccc(F)c3)s2)cc1`, the “activity change, negative = cytotoxicity” value is inactive: 5.82%.

On to `COc1ccc(CNC(=O)Cn2c(SCC(=O)N(C)c3ccccc3)nc3ccccc32)cc1`, for which the “activity change, negative = cytotoxicity” value was inactive: 22.2%.

For `CCOC(=O)c1noc2nc(C)n(CC(=O)Nc3cc(Cl)ccc3OC)c(=O)c12`, the “activity change, negative = cytotoxicity” value was inactive: 1.15%.

In the case of `CCCCn1c(=O)n(-c2ccc(Br)cc2F)c(=O)c2c3c(sc21)CN(C(C)=O)CC3`, the “activity change, negative = cytotoxicity” value is inactive: 1.68%.

Turning to `Cc1ccc(OCC(=O)Nc2c(C(=O)c3ccccc3)oc3ccccc23)cc1C`, the “activity change, negative = cytotoxicity” value was inactive: 3.64%.

Consider `COc1ccccc1CNC(=O)C(=O)NCC(c1cccs1)S(=O)(=O)c1ccc(F)cc1` (stereo unspecified), for which the “activity change, negative = cytotoxicity” value is inactive: -4.96%.

Consider `Cc1ccc(CNC(=O)C2CCN(S(=O)(=O)N3CCC(C)CC3)CC2)cc1`, for which the “activity change, negative = cytotoxicity” value is inactive: 1.68%.

Regarding `Oc1c(C(c2ccccc2)N2CCN(Cc3ccccc3)CC2)sc2nc(-c3ccco3)nn12` (stereo unspecified), the “activity change, negative = cytotoxicity” value was inactive: -2.71%.

`Cc1csc2nc(COC(=O)c3ccc(NC(=O)COc4ccccc4F)cc3)cc(=O)n12`: the “activity change, negative = cytotoxicity” value was inactive: -8.52%.

Regarding `CS(=O)(=O)c1ccc2nc(NC(=O)CS(=O)(=O)c3ccc(Cl)cc3)sc2c1`, the “activity change, negative = cytotoxicity” value is inactive: -1.13%.

Take `CCOC(=O)CNC(=O)Nc1cc(C(=O)NCc2cccc(F)c2)ccc1N1CCCC1`: the “activity change, negative = cytotoxicity” value was inactive: 12.5%.

With `Cc1ccc(-c2nc3scc(CCNC(=O)c4cccc(Br)c4)n3n2)cc1`, the “activity change, negative = cytotoxicity” value is inactive: -7.33%.

Regarding `COc1ccccc1NC(=O)C1CCCN(c2nnc(C)c3c(C)n(-c4ccccc4)nc23)C1` (stereo unspecified), the “activity change, negative = cytotoxicity” value is inactive: -2.52%.

Consider `CCCCC12CN3CC(C)(CN(C1)C3c1cc(Br)ccc1O)C2=O` (stereo unspecified), for which the “activity change, negative = cytotoxicity” value is inactive: 0.0645%.

Take `COc1ccc(NC(=O)c2ccc3nc(CCc4ccccc4)oc3c2)cc1`: the “activity change, negative = cytotoxicity” value is inactive: 9.18%.

As to `CCCN(CCC)C(=O)Cn1c(=O)n(-c2cccc(C(F)(F)F)c2)c(=O)c2c(C)c(C)sc21`, the “activity change, negative = cytotoxicity” value was inactive: -5.09%.

Regarding `O=C(Cn1c(=O)n(Cc2ccco2)c(=O)c2cccnc21)Nc1ccccc1F`, the “activity change, negative = cytotoxicity” value was inactive: -18.7%.

As to `CCOc1cc(C(=O)Nc2ccc(-c3nc4cc(C)ccc4o3)cc2)cc(OCC)c1OCC`, the “activity change, negative = cytotoxicity” value is inactive: 5.86%.

Turning to `O=C(Nc1ccc2nc(SCC(=O)N3CCCC3)sc2c1)c1ccccc1`, the “activity change, negative = cytotoxicity” value was inactive: 7.59%.

In the case of `Cc1ccc(NC2=C(c3ccc(C(F)(F)F)cc3)C(=O)c3ccccc32)cc1F`, the “activity change, negative = cytotoxicity” value was inactive: -1.72%.

As for `CCOc1ccccc1NC(=O)CSc1nc2ccccc2c2nc(CCn3cncc3C)nn12`, the “activity change, negative = cytotoxicity” value is inactive: 6.24%.

As for `O=C(NCC(c1cccnc1)N1CCc2ccccc21)c1ccccc1Br` (stereo unspecified), the “activity change, negative = cytotoxicity” value was inactive: -13.6%.

With `Cc1ccc2oc(=O)c3cnn(CC(=O)NCc4ccccc4Cl)c3c2c1`, the “activity change, negative = cytotoxicity” value was inactive: 3.73%.

As for `O=C1[C@@H]2CSC(c3ccc(F)cc3)N2C(=O)N1c1ccc(Cl)cc1` (stereo partly specified), the “activity change, negative = cytotoxicity” value was inactive: -0.768%.

With `COc1ccc(CNC(=O)c2cccc(N3CCCS3(=O)=O)c2)cc1`, the “activity change, negative = cytotoxicity” value was inactive: 21.8%.

As for `CCc1ccc(-n2c(=O)c3c4c(sc3n(Cc3ccc(F)cc3)c2=O)CCCC4)cc1`, the “activity change, negative = cytotoxicity” value was inactive: 4.12%.

Regarding `O=C(Cn1c(=O)n2nc(-c3ccccc3)nc2c2ccccc21)Nc1ccccc1C(F)(F)F`, the “activity change, negative = cytotoxicity” value was inactive: 17.1%.

`Nc1ncc(S(=O)(=O)NCc2cccc(Cl)c2)cn1`: the “activity change, negative = cytotoxicity” value is inactive: -1.05%.

For the compound `Cc1ccc(-c2nc(CCNC(=O)C(=O)Nc3ccc(C)c(C)c3)cs2)cc1`, the “activity change, negative = cytotoxicity” value was inactive: 6.44%.

Consider `Cc1ccc(C)n1-c1nnc(N2CCC(C(=O)NCc3ccccc3Cl)CC2)s1`, for which the “activity change, negative = cytotoxicity” value was inactive: -14.9%.

Turning to `CSc1ccc(CNCc2c(C(=O)O)c(C)n(Cc3ccc(F)cc3Cl)c2C)cc1`, the “activity change, negative = cytotoxicity” value is inactive: 1.31%.

`COC(=O)c1c(NC(=O)c2ccc(S(=O)(=O)N3CCCC(C)C3)cc2)sc2c1CCN(C(C)C)C2` (stereo unspecified): the “activity change, negative = cytotoxicity” value is inactive: -3.92%.

With `Cc1ccc(Cl)c2sc(N3CCN(C(=O)C4CC4)CC3)nc12`, the “activity change, negative = cytotoxicity” value is inactive: -2.56%.

On to `CC(C)c1ccc(NC(=O)CSc2ncc3c(n2)-c2ccccc2N(C)S3(=O)=O)cc1`, for which the “activity change, negative = cytotoxicity” value is inactive: 1.71%.

Turning to `Cc1c(NC(=O)c2nc3ccccc3n(C)c2=O)cccc1[N+](=O)[O-]`, the “activity change, negative = cytotoxicity” value was inactive: -0.709%.

In the case of `COc1cccc(N2CCN(C(=O)C3CCCN(S(=O)(=O)c4ccc(Br)s4)C3)CC2)c1` (stereo unspecified), the “activity change, negative = cytotoxicity” value is inactive: -28.3%.

For `Cc1ccccc1CNC(=O)c1c(C)oc2c1C1=NCCN1C=N2`, the “activity change, negative = cytotoxicity” value was inactive: 1.48%.

For the compound `Cc1ccccc1Cn1cc(S(=O)(=O)c2ccc(Cl)cc2)c(=O)c2cc3c(cc21)OCO3`, the “activity change, negative = cytotoxicity” value is inactive: 5.66%.

Turning to `COc1ccc(NS(=O)(=O)c2cc3[nH]c(=O)c(=O)[nH]c3cc2C)cc1OC`, the “activity change, negative = cytotoxicity” value is inactive: -1.86%.

For the compound `Cc1ccc2c(=O)cc(C(=O)Nc3sc4c(c3C(=O)NCc3ccco3)CCC4)oc2c1C`, the “activity change, negative = cytotoxicity” value is inactive: 3.79%.

As for `Cc1ccc(NC(=O)c2ccc(NC(=O)N3CCSc4ncccc43)cc2)cc1Cl`, the “activity change, negative = cytotoxicity” value is inactive: -25.6%.

`CCc1ccc(-n2nc3cc(C)c(NC(=O)c4cc(Cl)ccc4OC)cc3n2)cc1`: the “activity change, negative = cytotoxicity” value is inactive: -3.45%.

For the compound `O=C(Cn1cc(S(=O)(=O)Cc2ccc(F)cc2)c2ccccc21)NCCc1ccccc1`, the “activity change, negative = cytotoxicity” value is inactive: -10.1%.

On to `CCCN(C(=O)Cn1ncc2c(=O)oc3ccccc3c21)c1cccc(C)c1`, for which the “activity change, negative = cytotoxicity” value is inactive: -17.2%.

On to `Cc1ccc(CNC(=O)Cn2ncc3c(C)n(Cc4ccc(Cl)cc4)c(C)c3c2=O)cc1`, for which the “activity change, negative = cytotoxicity” value was inactive: -12.6%.

With `COc1ccccc1Nc1cc(C)nc2nc(-c3ccccc3)nn12`, the “activity change, negative = cytotoxicity” value is inactive: -3.16%.

Turning to `CCC(C)NC(=O)Cn1c(=O)n(Cc2ccc(C(=O)NCCCOC)cc2)c(=O)c2ccccc21` (stereo unspecified), the “activity change, negative = cytotoxicity” value was inactive: 4.37%.

Turning to `Cc1ccc(NC(=O)c2c(N3CCCC3=O)c3cc(C)ccc3n2C)c(C)c1`, the “activity change, negative = cytotoxicity” value is inactive: 12.4%.

Regarding `COc1ccc(OCCn2c(C3CC(=O)N(c4ccc(F)cc4)C3)nc3ccccc32)cc1` (stereo unspecified), the “activity change, negative = cytotoxicity” value was inactive: -18%.

For the compound `COc1ccc(Nc2cc(C(=O)NCCc3ccccc3)c3ccccc3n2)cc1OC`, the “activity change, negative = cytotoxicity” value was inactive: 4.98%.

Consider `O=C(C1CCCN(S(=O)(=O)c2cccs2)C1)N1CCN(c2cccc(Cl)c2)CC1` (stereo unspecified), for which the “activity change, negative = cytotoxicity” value was inactive: 5.45%.

As for `Cc1ccc(C)c(N2CCN(c3ncnc4c3nc3n4CCCCC3)CC2)c1`, the “activity change, negative = cytotoxicity” value was inactive: 16.4%.

Take `Cn1nc(C(=O)N2CCN(c3ccc(Cl)cc3)CC2)c2c1-c1ccccc1SC2`: the “activity change, negative = cytotoxicity” value was inactive: 17.7%.

Regarding `Cc1ccc(NC(=O)Cn2nnnc2-c2ccccc2N)cc1`, the “activity change, negative = cytotoxicity” value is inactive: 1.37%.

Turning to `O=c1c2cc3c(cc2nc2sc(Nc4ccc(F)cc4F)nn12)OCO3`, the “activity change, negative = cytotoxicity” value is inactive: 3.88%.

With `COc1cccc(CNC(=O)CSc2ccc(-c3sc(-c4ccccc4)nc3C)nn2)c1`, the “activity change, negative = cytotoxicity” value is inactive: -24.5%.

`COc1ccc(Cl)cc1NC(=O)N1CCC(CN2CCc3ccccc3C2)CC1`: the “activity change, negative = cytotoxicity” value was inactive: 11.7%.
